Over roughly 33,000 sequences, “E-score (-0.5 to 0.5)” has its median near -0.035; the highest 2% begin near 0.34. The list shows a part of the results.
biological target: T1, Mot3 (UniProt P54785); assay: PBM E-score (8-mer binding enrichment) (E-score (-0.5 to 0.5)); higher = stronger / more preferred TF binding; most listed sequences are background and not binding sites; conditions: protein concentration: 200 nM; construct: GST-full length
T1 sequence: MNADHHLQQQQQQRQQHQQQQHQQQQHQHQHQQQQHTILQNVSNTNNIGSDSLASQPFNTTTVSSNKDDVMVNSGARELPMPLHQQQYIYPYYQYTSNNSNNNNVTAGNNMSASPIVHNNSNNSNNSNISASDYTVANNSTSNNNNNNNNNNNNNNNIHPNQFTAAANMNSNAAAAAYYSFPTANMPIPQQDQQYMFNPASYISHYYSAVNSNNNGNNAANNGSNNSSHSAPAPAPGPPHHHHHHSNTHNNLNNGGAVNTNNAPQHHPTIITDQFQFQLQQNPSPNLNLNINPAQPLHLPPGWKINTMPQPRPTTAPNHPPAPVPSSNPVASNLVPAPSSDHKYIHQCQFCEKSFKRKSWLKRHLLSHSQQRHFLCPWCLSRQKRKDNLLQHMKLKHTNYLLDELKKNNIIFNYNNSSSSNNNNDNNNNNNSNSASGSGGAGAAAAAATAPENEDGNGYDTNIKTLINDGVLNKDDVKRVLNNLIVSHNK
Procedure: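 Universal 'all 10-mer' protein binding microarrays (Agilent AMADID 015681) probed with GST-tagged S. cerevisiae TFs (full-length or DBD) made by in vitro transcription/translation (PURExpress), about 100-200 nM. Bound TF was detected with fluorescent anti-GST. Each ungapped 8-mer (which stands for itself and its reverse complement) is scored by the PBM enrichment score (E-score), a modified Wilcoxon-Mann-Whitney statistic from -0.5 to +0.5, computed with the Universal PBM Analysis Suite. Scale: above 0.35 generally sequence-specific binding.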

Sequence | PBM E-score
CAAAGACC | -0.0124
CACCCATA | -0.215
GATGGACA | -0.0995
GAATCGGC | -0.269
TCCGAAAA | -0.261
ACTCTCGG | -0.197
ACACCTCA | -0.0741
ACCGGCTC | -0.299
ACCCTGAG | -0.0403
GACGCACA | -0.131
ATAACTAG | 0.0326
CTATGATC | 0.0348
ACGTGACC | -0.0113
GTGAGAGA | 0.0715
CAGACTCC | -0.335
CGCCAGAC | -0.05
ACAAGTAA | 0.169
CTTTATAC | 0.198
GAATACCC | -0.137
ATGACCTA | -0.00208
CGCGCCCC | -0.316
AGATTAGA | 0.0126
GAGCTGCA | -0.352
AAGTTCGT | -0.0605
ATGATTCA | -0.0564

Sequence | PBM E-score
CCGTCATC | -0.297
ACACGATC | 0.347
CATCCGCC | -0.314
AGGCTGGA | -0.233
ACTAATCT | -0.137
GTGGTACA | -0.00186
AACAGGAG | 0.0835
CGCGTGAC | 0.0817
TGAAATAA | 0.213
CTAAAATC | -0.0313
GCTTTTAA | 0.0026
TCGCGAAA | 0.00419
CCGCATCG | -0.235
TACGAGAA | 0.0768
AGTAGAAT | 0.0735
CTGGTCTA | -0.195
GCCGACTA | -0.0944
CGACATCC | -0.071
AAGGCAAA | 0.479
ACGTTCTA | 0.0886
AGATTTCC | 0.113
ACCGCTTG | 0.00252
CAACGGGA | -0.0539
CCATGACG | -0.184
CTGCGCTA | -0.15

Sequence | PBM E-score
GCCGGAGA | -0.247
AGACGAGC | -0.245
GCCTCCAA | -0.00806
AGACACAT | -0.0431
CCCCGTCG | -0.239
CTCGATAA | -0.0356
AAAAGAAC | 0.107
ATAAAGGA | 0.0864
ACATTTGG | -0.0323
GTAGCTGA | -0.146
CGAAGGTA | 0.366
GCACAGAC | 0.195
GGAAGCTA | -0.325
CTGGTTGA | -0.102
CCAATAAA | -0.0259
GACCTGTA | -0.0895
AGTCCGGA | -0.0421
AGTAGCGA | -0.0559
AAAATAAT | 0.2
AGACACAG | -0.00149
CACCACGA | -0.126
ACGGCATG | -0.00947
CAGTATGA | -0.0857
CGGTATGC | -0.227
CACAGTAA | 0.0633

Sequence | PBM E-score
GTTAACCA | 0.195
GCCCGCCC | -0.145
GCTGAGCA | 0.141
CTTTAAGA | 0.0024
GAGCGACA | 0.104
GAAAGTGC | -0.154
ATGTGACG | 0.0311
ACGCAGAC | 0.107
ATGGGTGG | -0.155
ACCGTTCA | -0.025
ATTATTCC | 0.0513
ACTCACAT | 0.0353
GTGCAAGA | 0.112
TGCCGCCA | -0.237
GAAGGAAC | 0.468
AAGTCGGA | 0.0846
AATCAGAT | 0.0335
GAGCGCAC | -0.307
GTCATATA | 0.101
GAATTTCC | 0.0437
ATCAGGCC | -0.0425
CGTATACG | 0.0487
AACTAGAC | -0.0673
AGCTCGAG | -0.191
ACCTACGG | -0.0217

Sequence | PBM E-score
AAAAATAC | 0.0348
ACAAACTC | 0.0169
GGATATGA | -0.218
CGGAAGAG | -0.134
GTGAACTA | 0.108
CTCTCGAA | 0.0432
AGGGAGGG | -0.269
GGCTATCA | -0.135
CTCTACCA | -0.192
AGAGGGAT | -0.183
AGTAGTGA | -0.0837
CACTCGAA | 0.0251
AAGAGTTG | 0.0434
AGTATGCA | -0.0269
GCGGACAA | -0.139
TAGTTACA | 0.314
AAGTGAAT | 0.0211
CAGTCTTC | -0.243
CAGAGGCG | -0.149
AGAATGAC | -0.0267
ACTCGCTG | -0.176
GTTCCAAC | -0.0662
ACCTCAGG | -0.0976
ACCAATCG | -0.166
CACCCGGC | -0.19

Sequence | PBM E-score
GTCCGGAC | 0.0843
CTCGCCAG | -0.132
AAAGACTA | -0.0333
CGTCCTAG | 0.0293
TATTGTGA | 0.124
AGCTTCGC | -0.106
CGTAGATC | 0.0629
ACTAGACA | 0.0926
CAGCTATC | -0.259
CCCCATCA | -0.207
ATCTAATA | 0.148
ATGTATGC | 0.271
CCGTACGC | -0.235
ATCCCCAT | 0.00841
CAAGGGAG | -0.123
AAGCCGGT | -0.12
GCGGGAGC | -0.273
GGCCAGCA | -0.161
CAAAGGTG | 0.0423
GCTGTGCA | -0.0637
CCCCCCGC | -0.341
GGCAGGCC | -0.165
GCGACCCA | -0.269
CTTTCCTC | 0.0989
GGAGACAA | -0.0183

Sequence | PBM E-score
CCCAATCC | -0.106
CCATCAGC | -0.189
AATCCTAT | -0.144
CCAGGTTC | 0.0333
ACGTTCCG | -0.144
CCTGCCAG | 0.0836
GTTCCGGA | -0.201
ATGATCCG | -0.114
AGTGGTAC | -0.108
AGAGGATA | -0.0833
AGAATAGG | 0.0659
AAAACGAC | -0.00705
ATGCAGCG | -0.243
CAAACTGG | -0.208
GAGGTCCA | -0.194
CTTGGGTC | -0.311
TTGGAAAA | 0.0808
AGGCAATA | 0.472
CACCCTCG | -0.108
AACGAATA | 0.0301
GCAGTAGC | -0.188
ACGGGGAT | -0.188
AGGCGCCT | 0.302
ATGAGAAG | 0.0514
AGCTGTTG | 0.0817

Sequence | PBM E-score
TCGAGTAA | 0.172
ACGCGAGC | -0.0425
AGTACGAC | 0.0306
AGGAGAAG | -0.16
AATAATAT | 0.2
CTTGTCAA | 0.256
AGCCATTC | -0.0521
CCACATGG | -0.192
CACGTGTA | 0.383
GACATCTA | -0.0872
AAGTCTGA | -0.133
CGAGGCCG | -0.349
CACAGAAC | 0.0199
GTGTCTCA | -0.0996
CAGCCATA | -0.0279
CTAGGGAC | -0.333
GTATCGTA | 0.197
GCCTACGA | 0.219
ACCACGCC | -0.217
TCGACCGA | -0.143
CAACCCCC | 0.0528
CGGCCCGA | -0.275
AACGCAAG | 0.106
CAAGTCCA | -0.126
CGAATAAG | -0.176

Sequence | PBM E-score
CAACACGA | 0.363
ATGCTAGC | -0.0698
AGTACTGA | -0.258
ACCGGGCG | -0.371
CAATTGGA | -0.241
ATGGTTTC | 0.0624
CACATTCA | -0.0265
CCAAAAAC | 0.00075
AGATCTCG | -0.259
CAGACCGC | -0.231
ACTATCAG | -0.0545
AATCAGTC | 0.101
ACCATTGA | -0.0323
AAGCAAGA | 0.0175
TAAGTCAA | -0.0137
GACAATCC | -0.215
CTTATAGA | 0.0013
GATACTGC | -0.135
CACCGGGG | -0.179
